According to article PMC10164914:
No constants are given. Whether binding was seen depends on the method and setting. Binding seen in cells or lysates may run through a third protein. Some binding calls cover weakened binding; strength is not graded here. For some assays here: Sequences can lack the tags named with a protein.

Chains of the proteins cited; added tags and fusions are not shown.
UniProt P30680: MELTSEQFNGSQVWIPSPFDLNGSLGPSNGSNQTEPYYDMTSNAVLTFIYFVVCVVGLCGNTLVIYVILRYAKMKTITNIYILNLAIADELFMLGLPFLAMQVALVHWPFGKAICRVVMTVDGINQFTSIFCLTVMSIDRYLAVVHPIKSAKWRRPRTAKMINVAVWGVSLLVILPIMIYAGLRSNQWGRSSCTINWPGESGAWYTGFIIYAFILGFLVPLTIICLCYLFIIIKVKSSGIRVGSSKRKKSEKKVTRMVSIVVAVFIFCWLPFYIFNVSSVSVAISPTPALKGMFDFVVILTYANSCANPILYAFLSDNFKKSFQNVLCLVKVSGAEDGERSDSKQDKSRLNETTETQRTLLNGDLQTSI
UniProt P30874: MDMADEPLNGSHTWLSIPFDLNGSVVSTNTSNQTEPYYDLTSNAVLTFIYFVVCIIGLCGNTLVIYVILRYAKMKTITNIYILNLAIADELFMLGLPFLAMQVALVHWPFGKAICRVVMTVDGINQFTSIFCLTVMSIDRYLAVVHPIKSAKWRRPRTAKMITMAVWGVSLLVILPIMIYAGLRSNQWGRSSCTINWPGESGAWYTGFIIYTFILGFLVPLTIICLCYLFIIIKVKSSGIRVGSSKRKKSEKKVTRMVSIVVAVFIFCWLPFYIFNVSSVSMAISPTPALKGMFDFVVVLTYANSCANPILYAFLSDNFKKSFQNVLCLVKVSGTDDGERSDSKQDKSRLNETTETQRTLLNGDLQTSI

Columns and labels:
[1] = biological target: triple HA-epitope tagged WT rat Sstr2 (Somatostatin receptor 2) (rat) (UniProt P30680); test: proximity ligation; DuoLink PLA with HA and Flag antibodies in HEK293 cells transfected with HA-Sstr2 and Flag-Dvl1; fixed in 3% PFA; untreated, 100 nM octreotide for the times shown, or 100 nM PRL2915 for 30 min
[2] = biological target: triple HA-epitope tagged WT rat Sstr2 (Somatostatin receptor 2) (rat) (UniProt P30680); test: co-IP; HEK293 cells transfected with HA-Sstr2 and Flag-Dvl1; lysis in 50 mM Hepes pH 7.4, 150 mM NaCl with 2 mg/ml dodecyl β-maltoside and 0.2% Triton X-100; HA-Sstr2 precipitated with anti-HA agarose, 2 h at 4 °C; Western blot for Dvl1
[3] = biological target: triple HA-epitope tagged WT rat Sstr2 (Somatostatin receptor 2) (rat) (UniProt P30680); test: condition: only cells incubated overnight with the pan-Dvl PDZ domain inhibitor NSC668036; co-IP; as a1, but the transfected HEK293 cells were incubated overnight with the pan-Dvl PDZ domain inhibitor NSC668036 before lysis and immunoprecipitation of HA-Sstr2
[4] = biological target: endogenous Sstr2 (Somatostatin receptor 2) (human (endogenous in IMR32 and H69)) (UniProt P30874); test: proximity ligation; DuoLink PLA with mouse anti-Sstr2 and rabbit anti-Dvl1 on endogenous proteins in IMR32 cells; fixed in cold methanol; untreated, 100 nM octreotide for the times shown, or 100 nM PRL2915 for 30 min
[5] = biological target: endogenous Sstr2 (Somatostatin receptor 2) (human (endogenous in IMR32 and H69)) (UniProt P30874); test: co-IP; endogenous proteins from IMR32 and H69 cells; lysis buffer with 0.5% C12E8; lysates clarified with nonspecific rabbit IgG and Protein A-Sepharose; 1.5 μg rabbit anti-Sstr2 or rabbit IgG, 2 h at 4 °C; washes with NaCl at 175 mM; Western blot for Dvl1

Binder	binding [1]	binding [2]	binding [3]	binding [4]	binding [5]
Flag-tagged human Dvl1 (Dishevelled 1) (protein, UniProt O14640 1-695) MAETKIIYHMDEEETPYLVKLPVAPERVTLADFKNVLSNRPVHAYKFFFKSMDQDFGVVKEEIFDDNAKLPCFNGRVVSWLVLAEGAHSDAGSQGTDSHTDLPPPLERTGGIGDSRPPSFHPNVASSRDGMDNETGTESMVSHRRERARRRNREEAARTNGHPRGDRRRDVGLPPDSASTALSSELESSSFVDSDEDGSTSRLSSSTEQSTSSRLIRKHKRRRRKQRLRQADRASSFSSITDSTMSLNIVTVTLNMERHHFLGISIVGQSNDRGDGGIYIGSIMKGGAVAADGRIEPGDMLLQVNDVNFENMSNDDAVRVLREIVSQTGPISLTVAKCWDPTPRSYFTVPRADPVRPIDPAAWLSHTAALTGALPRYGTSPCSSAVTRTSSSSLTSSVPGAPQLEEAPLTVKSDMSAVVRVMQLPDSGLEIRDRMWLKITIANAVIGADVVDWLYTHVEGFKERREARKYASSLLKHGFLRHTVNKITFSEQCYYVFGDLCSNLATLNLNSGSSGTSDQDTLAPLPHPAAPWPLGQGYPYQYPGPPPCFPPAYQDPGFSYGSGSTGSQQSEGSKSSGSTRSSRRAPGREKERRAAGAGGSGSESDHTAPSGVGSSWRERPAGQLSRGSSPRSQASATAPGLPPPHPTTKAYTVVGGPPGGPPVRELAAVPPELTGSRQSFQKAMGNPCEFFVDIM	binds	binds	no binding		
endogenous Dvl1 (Dishevelled 1) (protein, UniProt O14640 1-695) MAETKIIYHMDEEETPYLVKLPVAPERVTLADFKNVLSNRPVHAYKFFFKSMDQDFGVVKEEIFDDNAKLPCFNGRVVSWLVLAEGAHSDAGSQGTDSHTDLPPPLERTGGIGDSRPPSFHPNVASSRDGMDNETGTESMVSHRRERARRRNREEAARTNGHPRGDRRRDVGLPPDSASTALSSELESSSFVDSDEDGSTSRLSSSTEQSTSSRLIRKHKRRRRKQRLRQADRASSFSSITDSTMSLNIVTVTLNMERHHFLGISIVGQSNDRGDGGIYIGSIMKGGAVAADGRIEPGDMLLQVNDVNFENMSNDDAVRVLREIVSQTGPISLTVAKCWDPTPRSYFTVPRADPVRPIDPAAWLSHTAALTGALPRYGTSPCSSAVTRTSSSSLTSSVPGAPQLEEAPLTVKSDMSAVVRVMQLPDSGLEIRDRMWLKITIANAVIGADVVDWLYTHVEGFKERREARKYASSLLKHGFLRHTVNKITFSEQCYYVFGDLCSNLATLNLNSGSSGTSDQDTLAPLPHPAAPWPLGQGYPYQYPGPPPCFPPAYQDPGFSYGSGSTGSQQSEGSKSSGSTRSSRRAPGREKERRAAGAGGSGSESDHTAPSGVGSSWRERPAGQLSRGSSPRSQASATAPGLPPPHPTTKAYTVVGGPPGGPPVRELAAVPPELTGSRQSFQKAMGNPCEFFVDIM				binds	binds
